Positions count from the first letter of the chain named. Marks after values point to notes of the source that are not given here.
Experiments:
[1] = cited from earlier work
M5−M2 TM3,4,5 chimera [2] = molecular target: T1, M5−M2 TM3,4,5 chimera (Homo sapiens, UniProt P08172+P08912); experiment: IP1 accumulation, interaction of ML375 vs ACh; settings: M5−M2 TM3,4,5, CHO cells; N.R. = no response
T1 sequence (P08912 with tags, fused parts or gaps): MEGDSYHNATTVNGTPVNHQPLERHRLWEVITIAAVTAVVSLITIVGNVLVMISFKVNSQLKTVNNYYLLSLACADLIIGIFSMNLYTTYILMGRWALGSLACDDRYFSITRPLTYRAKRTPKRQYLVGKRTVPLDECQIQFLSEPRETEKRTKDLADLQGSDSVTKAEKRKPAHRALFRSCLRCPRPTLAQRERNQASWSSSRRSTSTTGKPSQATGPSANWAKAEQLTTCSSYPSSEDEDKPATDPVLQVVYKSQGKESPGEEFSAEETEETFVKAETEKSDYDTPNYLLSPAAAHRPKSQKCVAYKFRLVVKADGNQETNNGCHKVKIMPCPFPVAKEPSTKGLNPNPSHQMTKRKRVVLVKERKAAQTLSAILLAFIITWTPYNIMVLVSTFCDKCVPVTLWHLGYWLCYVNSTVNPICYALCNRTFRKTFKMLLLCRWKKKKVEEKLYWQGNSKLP
T1 sequence (P08172 93-210): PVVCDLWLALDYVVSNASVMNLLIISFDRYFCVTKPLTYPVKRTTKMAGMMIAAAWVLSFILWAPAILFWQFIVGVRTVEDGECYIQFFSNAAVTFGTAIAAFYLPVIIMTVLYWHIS

M5−M2 TM1,7,h8 chimera [3] = molecular target: T2, M5−M2 TM1,7,h8 chimera (Homo sapiens, UniProt P08172+P08912); experiment: IP1 accumulation, interaction of ML375 vs ACh; settings: M5−M2 TM1,7,h8, CHO cells
WT M5 mAChR [4] = molecular target: T3, WT M5 mAChR (Homo sapiens, UniProt P08912)
T3 sequence (P08912 1-532): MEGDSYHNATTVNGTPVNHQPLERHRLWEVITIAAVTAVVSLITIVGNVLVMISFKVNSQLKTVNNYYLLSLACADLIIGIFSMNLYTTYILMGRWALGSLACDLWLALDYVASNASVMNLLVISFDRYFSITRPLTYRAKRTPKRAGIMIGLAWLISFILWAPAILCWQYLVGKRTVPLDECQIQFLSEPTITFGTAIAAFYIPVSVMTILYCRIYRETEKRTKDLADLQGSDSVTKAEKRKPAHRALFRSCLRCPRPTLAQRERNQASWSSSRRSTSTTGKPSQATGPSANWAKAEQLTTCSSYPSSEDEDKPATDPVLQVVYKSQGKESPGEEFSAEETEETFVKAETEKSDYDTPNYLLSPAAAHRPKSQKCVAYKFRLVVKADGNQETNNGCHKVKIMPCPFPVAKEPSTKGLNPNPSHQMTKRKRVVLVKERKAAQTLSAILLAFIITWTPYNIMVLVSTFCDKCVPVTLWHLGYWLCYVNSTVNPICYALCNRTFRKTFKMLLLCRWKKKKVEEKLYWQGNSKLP

M5−M2 TM2,3,4 chimera = M5−M2 TM2,3,4 chimera (Homo sapiens, UniProt P08172+P08912); experiment: interaction binding between [^3H]-NMS and ACh in the presence of ML375
M5−M2 TM3,4,5 chimera [5] = molecular target: T1, M5−M2 TM3,4,5 chimera; experiment: as above
M5−M2 TM1,7,h8 chimera [6] = molecular target: T2, M5−M2 TM1,7,h8 chimera; experiment: as above
M5−M2 ECL chimeras = experiment: interaction between [^3H]-NMS and ML375 at ECL chimeras; assay type: binding; settings: M5−M2 ECL1, ECL2 and/or ECL3 chimeras, Figure S3
[7] = molecular target: T4, M5 mAChR EH4 pocket mutant (Homo sapiens, UniProt P08912, A113V/G152A/L156V); experiment: interaction binding between [^3H]-NMS and ACh in the presence of ML375; parameters: expressed in transfected cells; host or cells: Flp-In CHO cells
T4 sequence (P08912 1-532 A113V/G152A/L156V): T3 sequence (P08912 1-532) with A113V, G152A, L156V

WT M5 mAChR [8] = molecular target: T3, WT M5 mAChR; experiment: [^3H]-NMS equilibrium competition binding in WT membranes; parameters: expressed in transfected cells
Text: (§1) Radioligand dissociation kinetics experiments were fitted to a monoexponential decay function.[56] […] IC50 values were converted to Ki values using the Cheng-Prusoff equation.[57]

[9] = system: M5-T4L(S117R) mAChR, Sf9 cell membranes; experiment: [^3H]-NMS dissociation kinetics with PEG400 and ML375; assay type: binding; settings: read-out: apparent affinity from [^3H]-NMS dissociation rate constants; absence of ML375, Sf9 cell membranes
Procedure: Sf9 cells expressing M5-T4L (S117R) mAChR were harvested after 60 h. Sf9 cell membranes were prepared by homogenization and centrifugation. The final membrane pellet was resuspended in 20 mM HEPES pH 7.4 and 0.1 mM EDTA. Protein concentration was determined by absorbance at 280 nm, and membranes were stored at −80 °C. Assays were conducted in UniFilter-96 GF/B plates (PerkinElmer) with 1 μg of membranes per well in a final volume of 300 μL of binding buffer consisting of 20 mM HEPES, 100 mM NaCl, and 10 mM MgCl2 at pH 7.4. […] Nonspecific binding was defined in the presence of 1 μM atropine. Assays were stopped by vacuum filtration and washed three times with ice-cold 0.9% sodium chloride. Plates were allowed to dry before 40 μL of Microscint-0 (PerkinElmer) was added to each well. Radioactivity was measured on a MicroBeta2 microplate counter.
as §1

O=C(c1ccc(F)c(F)c1)N1CCN2C(=O)c3ccccc3[C@@]12c1ccc(Cl)cc1 [ML375, (S)-9b-(4-Chlorophenyl)-1-(3,4-Difluorobenzoyl)-2,3-Dihydro-1H-Imidazo[2,1-a]Isoindol-5(9bH)-One]
plasma protein binding [1]: high plasma protein binding
PKb, IP1 accumulation for the interaction of ML375 vs ACh (M5−M2 TM3,4,5 chimera [2]): N.R.
PKb, IP1 accumulation for the interaction of ML375 vs ACh (M5−M2 TM1,7,h8 chimera [3]): 5.77 ± 0.12^k (5)
log α (ACh), affinity cooperativity between ACh and ML375 (WT M5 mAChR [4]): −1.81 ± 0.02 (12)
modulation of ACh binding by ML375 (M5−M2 TM2,3,4 chimera): complete loss in the modulation of ACh binding
modulation of ACh binding by ML375 (M5−M2 TM3,4,5 chimera [5]): complete loss in the modulation of ACh binding
log α (ACh), affinity cooperativity between ACh and ML375 (M5−M2 TM1,7,h8 chimera [6]; M5−M2 TM1,7,h8): −3
log α (NMS), affinity cooperativity between [^3H]-NMS and ML375 (M5−M2 TM1,7,h8 chimera [6]; M5−M2 TM1,7,h8): 0.23 ± 0.04^k (5)
reduction of ML375 affinity vs WT M5 (M5−M2 TM1,7,h8 chimera [6]; M5−M2 TM1, TM7, H8 swap, [^3H]-NMS binding): ~ 10 fold
ML375 affinity at ECL chimeras (M5−M2 ECL chimeras): no loss in ML375 affinity
log α (ACh), affinity cooperativity between ACh and ML375 [7]: −0.71 ± 0.2 (4)
log α (NMS), affinity cooperativity between [^3H]-NMS and ML375 [7]: 0.31 ± 0.05 (4)

CC[N+](CC)(CC)CCOc1cccc(OCC[N+](CC)(CC)CC)c1OCC[N+](CC)(CC)CC [gallamine]
Kb (WT M5 mAChR [8]): 9.33 µM

CCCCc1oc2ccccc2c1C(=O)c1cc(I)c(OCCN(CC)CC)c(I)c1 [amiodarone]
Kb (WT M5 mAChR [8]): 0.955 µM

PEG400
Kd [9]: ~40000 µM

— PMC7616173 (ACS chemical neuroscience, 2021)
